These results are taken from publication PMC4065332, “PEX14 binding to Arabidopsis PEX5 has differential effects on PTS1 and PTS2 cargo occupancy of the receptor” (Febs Letters, 2014).

These are yes or no findings as the source states them, for the method shown. For part of these data: In cells and extracts the contact can be indirect. Some binding calls cover weakened binding; strength is not graded here.

Experiment [1] has as its target T1, PEX5 (1–728), recombinant Arabidopsis PEX5 (Arabidopsis thaliana) (UniProt Q9FMA3).
T1 sequence: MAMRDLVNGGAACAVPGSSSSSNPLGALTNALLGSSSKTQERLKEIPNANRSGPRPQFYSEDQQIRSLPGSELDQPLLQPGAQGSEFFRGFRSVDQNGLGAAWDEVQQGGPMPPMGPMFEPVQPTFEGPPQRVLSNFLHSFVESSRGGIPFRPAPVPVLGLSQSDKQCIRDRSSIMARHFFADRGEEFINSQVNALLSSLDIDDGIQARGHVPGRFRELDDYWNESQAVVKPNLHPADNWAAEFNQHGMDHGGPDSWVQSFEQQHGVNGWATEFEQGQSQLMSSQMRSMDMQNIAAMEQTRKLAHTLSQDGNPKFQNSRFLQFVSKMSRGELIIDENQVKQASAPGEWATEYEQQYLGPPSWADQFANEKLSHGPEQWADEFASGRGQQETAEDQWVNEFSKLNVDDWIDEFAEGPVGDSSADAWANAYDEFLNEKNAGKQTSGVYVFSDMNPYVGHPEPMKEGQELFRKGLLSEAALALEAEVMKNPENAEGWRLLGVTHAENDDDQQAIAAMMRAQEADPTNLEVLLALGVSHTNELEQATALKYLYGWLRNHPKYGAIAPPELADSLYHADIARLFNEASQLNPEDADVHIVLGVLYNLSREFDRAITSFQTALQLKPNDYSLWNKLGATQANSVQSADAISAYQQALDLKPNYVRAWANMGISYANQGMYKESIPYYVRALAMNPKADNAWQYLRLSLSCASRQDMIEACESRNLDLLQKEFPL
The experiment in a line: pull-down; Arabidopsis cytosolic fraction (~6 mg/mL, 500 μL) depleted on Ni–NTA, incubated with hexahistidine-tagged recombinant protein (33 μM in 50 μL PBS), 4 °C, 1 h; captured on Ni–NTA, washed with PBS, eluted with 1 M imidazole; immunoblots against PEX5, PEX7 and thiolase; only the target purified.

The target of experiment [2] is T2, Peroxisomal NAD+-malate dehydrogenase (pMDH1), recombinant (Arabidopsis thaliana) (UniProt O82399).
T2 sequence: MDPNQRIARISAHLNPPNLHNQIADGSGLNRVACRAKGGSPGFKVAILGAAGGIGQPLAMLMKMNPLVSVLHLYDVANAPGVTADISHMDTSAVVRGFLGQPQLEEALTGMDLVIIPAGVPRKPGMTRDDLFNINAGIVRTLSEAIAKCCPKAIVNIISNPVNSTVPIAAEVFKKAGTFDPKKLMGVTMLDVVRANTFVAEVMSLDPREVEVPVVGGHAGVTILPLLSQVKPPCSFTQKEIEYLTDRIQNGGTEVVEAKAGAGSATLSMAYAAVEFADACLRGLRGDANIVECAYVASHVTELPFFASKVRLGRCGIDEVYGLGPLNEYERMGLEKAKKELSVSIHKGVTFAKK
The experiment is described as above.

The target of experiment [3] is T3, Δ3,5,Δ2,4-Dienoyl-coenzyme A isomerase (DCI1), recombinant (Arabidopsis thaliana) (UniProt Q9FHR8).
T3 sequence: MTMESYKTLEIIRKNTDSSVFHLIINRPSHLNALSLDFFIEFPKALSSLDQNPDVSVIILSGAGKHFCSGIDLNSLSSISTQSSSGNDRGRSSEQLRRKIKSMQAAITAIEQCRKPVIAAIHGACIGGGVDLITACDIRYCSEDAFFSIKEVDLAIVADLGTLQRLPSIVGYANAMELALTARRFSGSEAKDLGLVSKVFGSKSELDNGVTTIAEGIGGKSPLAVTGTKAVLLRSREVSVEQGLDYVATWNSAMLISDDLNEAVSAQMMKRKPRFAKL
The experiment is described as above.

Experiment [4] addresses T4, PEX5 (340–728), termed PEX5C (Arabidopsis thaliana, UniProt Q9FMA3 340-728).
T4 construct: Arabidopsis PEX5 residues 340-728; holds six of the nine W-X3-F/Y motifs and the TPR domain; lacks residues 314-334; also called His6-PEX5C; AtPEX5C; source: E. coli, purified via IMAC
T4 sequence (looked up): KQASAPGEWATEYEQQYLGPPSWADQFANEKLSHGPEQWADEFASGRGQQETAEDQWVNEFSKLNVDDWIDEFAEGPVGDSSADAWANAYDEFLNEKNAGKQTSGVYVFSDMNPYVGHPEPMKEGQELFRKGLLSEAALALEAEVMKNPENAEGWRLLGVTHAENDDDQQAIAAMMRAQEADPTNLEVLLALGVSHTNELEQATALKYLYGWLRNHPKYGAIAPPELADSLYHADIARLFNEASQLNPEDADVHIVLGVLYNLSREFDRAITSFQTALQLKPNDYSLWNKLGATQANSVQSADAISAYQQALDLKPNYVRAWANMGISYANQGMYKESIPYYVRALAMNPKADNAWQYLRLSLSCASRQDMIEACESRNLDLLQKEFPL
In words: far-Western, overlay or dot blot; purified PEX5 constructs pipetted onto nitrocellulose, blocked in 3% BSA PBS-T, probed 1 h with peptide-HRP (200 nM) or PEX14N-HRP (50 nM), ECL; for unloading then incubated with PEX14N 0.2 μM 1 h and 2 μM 16 h at 4 °C; both purified.

For a further experiment, the target named is T5, lissamine-YQSKL.
T5 sequence (peptide, lissamine label): YQSKL
In words: fluorescence polarisation; fluorescence anisotropy; PEX14N titrated (3 μM to 1 nM in the results; 10 μM–1 nM in the methods) against constant PEX5C (100 nM) and lissamine-YQSKL (100 nM); HEPES 20 mM, NaCl 150 mM, pH 7.5; both purified.

Experiment [5] concerns the target T4, PEX5 (340–728), termed PEX5C. The experiment in a line: pull-down; PEX14N, PEX5C or PEX5 and lissamine-YQSKL (5 μM each) in PBS, 4 °C, 1 h; captured on Strep-Tactin resin by the StrepII tag of PEX14N; eluted with 7.5 mM desthiobiotin; anti-polyhistidine blot and fluorescence at 595 nm; both purified.
Experiment [6] has as its target T1, PEX5 (1–728), recombinant Arabidopsis PEX5 (Arabidopsis thaliana). The description is as above.
The target in experiment [7] is T4, PEX5 (340–728), termed PEX5C. In words: pull-down; lissamine-YQSKL incubated with Ni–NTA in the presence or absence of PEX5C; eluted; PEX5C by anti-polyhistidine blot, peptide by fluorescence intensity at 595 nm; both purified.

B1: PEX7 (endogenous, Arabidopsis cytosol) (receptor, UniProt Q9XF57 1-317)
chain: MPVFKAPFNGYSVKFSPFYESRLAVATAQNFGILGNGRIHVLELAPGAPGVTESVSYDTADAVYDVCWSESHDSVLIAAIGDGSVKIYDTALPPPSNPIRSFQEHAREVQSVDYNPTRRDSFLTSSWDDTVKLWAMDRPASVRTFKEHAYCVYQAVWNPKHGDVFASASGDCTLRIWDVREPGSTMIIPAHDFEILSCDWNKYDDCILATSSVDKTVKVWDVRSYRVPLAVLNGHGYAVRKVKFSPHRRSLIASCSYDMSVCLWDYMVEDALVGRYDHHTEFAVGIDMSVLVEGLMASTGWDELVYVWQQGMDPRAS
As to B1, the binding result in experiment [1] and in experiment [2] was “binds” in each case.

B2: PEX5 (endogenous, Arabidopsis cytosol) (receptor, UniProt Q9FMA3 1-728)
chain: T1 sequence
As for B2, the binding entry in experiment [3] and in experiment [2] was “binds” each time.
CGGGYQSEL (coupled to HRP-maleimide (conjugated to the sulfhydryl)) [HRP–YQSEL (… coupled to HRP–maleimide)]: in experiment [4], the binding entry is on record as “no binding (tested: 200 nM)”.

B3: PEX5 (340–728), termed PEX5C (domain or fragment, UniProt Q9FMA3 340-728)
chain: T4 sequence (looked up)
Consider B3, for which, in the experiment with lissamine-YQSKL, the binding entry was “binds”.
For YQSKL (lissamine label) [lissamine-YQSKL], the binding entry in experiment [5], in experiment [6] and in experiment [7] was “binds” in each case.
